Measurements taken from the supplement of paper PMC12632987.
The full ranking holds about 4,500 sequences; the median of “median log2 fold change of GCK-ALFA target abundance (FLAG IP / Myc IP barcode read proportion)” is about 0.078, and the lowest 2% start at about -0.6. This is one part of the list.

B1: GBRAP_160_4467 (protein)
chain: SATVKALVEELKKDVEETLKLNKNESVEQIANAVEITIGSHLMEAYEEGKITDEQEDILIEAMDKVRELAKKEKNASPEEAIKKIKEIVEEAAEKILKAS
B2: GBRAP_14_3878 (protein)
chain: MEKIKKAIEETRNRLKEFFDQFDPEKAAKLKELVDEEFDKMLKTIEETGDIEKAIDDTKKSLLEKAEEILKDAPEEDKAAALAEISVELAELEEEIDELV
B3: GBRAP_125_3064 (protein)
chain: MKEEAIEDLLLLARALGLSEDEIAELRELAERGSIKNTLIAIALAEGREELAEALARLTEEETIEVLRRLAAELEANPELTPEEVLERLLALAREALAAR
B4: GBRAP_160_4806 (protein)
chain: MEKVKKLLKEAREDLLDTAEASADLPIADRARLLEAEGYTNILDFEEELGISDETADKLDAIVDAMVATLLANPDLSDEEVLALVEKAAEEMEKIVLEEA
B5: GBRAP_166_4898 (protein)
chain: ATAAAIARIRALAADVIANIASLTDEELLAAFVEMAEIAEEAGTTPEVRAALAAAFTAVLAAAEAAGRDPARVRSLALAAVGANEELLDAVEAALAAAAA
B6: GBRAP_11_2828 (protein)
chain: KKEKLKELAKQAEEVAKKLEELIKSGKPTQEELEELLKKAEELLKKVKEYGDEALAKLAEILVELIKEAIADPENQQEYLKQALAAARVLEGQFLLEAEE
B7: GBRAP_150_3912 (protein)
chain: DLEELLTVVDTLIDLLEAILDGHYDLLPHALKVAKLAVELAKEERKELLELAKKALEALEKAEKLLKEGGEEKEIKKEIEKALKLAEKLREEIEKLIKEE
B8: GBRAP_26_5432 (protein)
chain: VSELLDEMIDRLEEAADELLDPELAAAVKAEISTLALELEEKIEEENLSLEEIEKLLKEFIKELEEEMKELGVSEEKIKKLREIAEEEAKEFLKKLKELK
B9: GBRAP_35_5552 (protein)
chain: EEDKEILEMLKNTAEDLLLAVDDIPVEDLVTIAKSIAKTTLEIIKEEKENKEEVKELAEATLKMLEAVIKKAKKEGLPQEKIEELEKLKKEIEEALKKAL
B10: GBRAP_64_6482 (protein)
chain: DEEIEKLLEEAKKYLEKALELAKKENPEIAKKLKEALKLLEEAKKKNLEERADLVAEVADILNEILKDPSLTEELKELVSEALDKVSEALWELDEEIEKK
B11: GBRAP_137_3682 (protein)
chain: KTLKATIEEIDGYREVTITSDDESLAEELLDAVLDALDELGLKATVASLVKDGKAEIELFFPKDVTREQVLELLKKVADKLNVDLVIEDKVTGETIEYKA
B12: GBRAP_137_3624 (protein)
chain: ATVHIDLRHYEDVVEITVRLEDKEKAEEVAELILDVAHEHGALAVSIEFLPDGSLEAVIWVPRDRAEALLAALVRGLTEELGLTVVVRDLDTGAETTHEP
B13: GBRAP_11_2652 (protein)
chain: MKEVLKKAAKLAEEAAAAVDKLIAEGVDNEELRAKATKLINELEKLVKEHASPALKSDVQVAVDLWKEFLADPANAEQYAVELRAALDVLHGDFLLEIEE
B14: GBRAP_39_5629 (protein)
chain: EEEEELDLLESYAEAELEKLQVETGLPLEELYAELLARAREKVADDPELLAALEELDALAEEKGEEAREDLAAIMAALLAGEPLEDILKLMKAKIAEYKA
B15: GBRAP_52_6050 (protein)
chain: MRERIRAIVEEILAAVKAGKLEEARKLLREVFETLSEEELELFVEEFAELAAKAKPEDFDAVATAVELAEEEAEEAGRPEAFADDLAARVYAALYKAEQA
B16: GBRAP_125_3107 (protein)
chain: EEEELLEDLRLLAKALGFDDEEAEEAARLAREFSVRQTLYAILKAEGEDELADLVEQLTEEQARAALREVAAWLREHPDATREEVVAHLRAVIEALLAAA
B17: GBRAP_125_2978 (protein)
chain: ATPEELEDLRLVALALGLDEEDAAELVRLAAAHSVRGALYALAKALGYEELAAAVEKLTEAEARAVLREVAAWLRAHPDATPEEAAARLLAVAKAALAAA
B18: GBRAP_166_4961 (protein)
chain: AVAEKLAEVEALLERFEREGPSLSPEERREMVVEIAEAIGELRKAGAPEETILELATRLILLAVRAGLPPSFVEAALINIAGLPIDLVDEALERARKELA
B19: GBRAP_184_5081 (protein)
chain: KVYEAEIVAETEEELLAKVDEVLAAAAAQKADLVVLVEAKGLDTELAVKIIEKLGAAKAAGKVPKVTLGFAEEFTEEEVDKIVAAADAAGVNVVLPLKEE
B20: GBRAP_11_2924 (protein)
chain: EKEVLKKIAELAEELAKVLKELIEKGVDDEELWKKAEELLKELTELVKKHADEAEKKLAEIAEELWKEAKEDKENQEKYLKEALAAVAVLAGQFLLKLEE
B21: GBRAP_160_4783 (protein)
chain: SARVARVTAEFAAALAEAAELAEGETAENRANIVDVETGSAILDLIEEGLLNDEEEEVAAAVRDELVAAILANPDLTPEELRALLAAAAARLEAELKALE
B22: GBRAP_11_2741 (protein)
chain: KEEELKEIKKLAEELAELLKELIEEGVDNEELRKKAEEKLKELKEKVKKYGDKDLEKIVEYIEEEWKKALEDPETALEHYQRALGAARVLAGQVELLIEE
B23: GBRAP_11_2785 (protein)
chain: SKELLEKIKKVAEKLAETLKKLLEEGVDDEKLIEEAEKLLEELKKLAKEHPDKNLQKLAEIAEELWKEFLKDKENQEEYLKQLLAAVQVLEGQVLLLLEE
B24: GBRAP_52_5901 (protein)
chain: GEERARKLAEEIVAAIEAGDLEKAVELLVEALLNFSDEEIAILADELRRLLKGKTLEEAEKAAEAAEKAGEIAEKLGADEEKVTLLEDAVETALVEVELA
B25: GBRAP_128_3398 (protein)
chain: SQEELLKKAKELIDKIVEADEEEARKYAEELMELLKKMDLETREEVAKYLEEKLPKLTAEKLEVIADVFRENRPKDDPELANIVADMQVEALNEAVEKEE
B26: GBRAP_160_4417 (protein)
chain: MEVVEEVRELLRETRELVLELVEEGEREQALAAARVGAGEILLYLDEEPRVSEEAEEEVDEVLDELVERLEENRDASPEEVRELLEEAEREVLEILEKHT
B27: GBRAP_184_5190 (protein)
chain: KVLEYEIKAENLEELKKKMEELKKLAKEKKADLYIIVDLPKVTKEMIEALMEALKEIKEKGYSKNIVVELIGEMTEEEIDLALELADEAGVRVTLALDEE
B28: GBRAP_139_3708 (protein)
chain: SALEEKVAEAKELTKETLENPEESIKKIVELLLSVSEEDLEVVVKAIAETLSEFPLDTAEELADKLLEEVKKRSKDEDKVNIVEAVLNGALARKAYEEEL
B29: GBRAP_80_6805 (protein)
chain: AEAELEAALAEIAALDPELAERVREIIEMARAMGVPLETLAEYARAVAALLKVDKEKAAELVEELEELLEEEKAEGNTANAEATLRVFAGQALLEVEELE

What follows are binders tested against GABARAP, O95166 (assay: median log2 fold change of GCK-ALFA target abundance (FLAG IP / Myc IP barcode read proportion) (log2 ratio); each designed protein is fused to an ALFA-tag nanobody in HEK293 cells to bring the named protein to FLAG-tagged glucokinase (GCK); Myc marks an untargeted standard; higher = target protein stabilised (more abundant)). Conditions: target protein: 3xFLAG-MCP-GCK-ALFA reporter; HEK293 landing pad (RPLP).
Sequence of GABARAP, O95166 (O95166 whole entry, the tested form may be a part): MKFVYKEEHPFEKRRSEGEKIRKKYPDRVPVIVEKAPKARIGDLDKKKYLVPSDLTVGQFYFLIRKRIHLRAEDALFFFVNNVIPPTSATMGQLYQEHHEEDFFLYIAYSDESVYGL
Method in brief: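 The readout is target abundance, the per-binder median log2 ratio of FLAG to Myc barcode read proportions. It came from HEK293 landing-pad cells carrying a recombined ALFA-nanobody-fused binder library, induced with 2 μg mL^−1 doxycycline and transfected with a plasmid for a FLAG-tagged target and a Myc-tagged standard. After 48 h, lysates were immunoprecipitated with anti-FLAG and anti-Myc, and circular RNA barcodes were reverse transcribed, amplified and sequenced. Each barcode needed a proportion of at least 10^−7 in both replicates and each binder at least 3 barcodes per replicate, a pseudocount of 10^−6 was added, and the replicates were pooled.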

Row | Binder | median log2 fold change
1 | B1 | 0.086
2 | B2 | 0.0966
3 | B3 | -0.046
4 | B4 | -0.487
5 | B5 | -0.437
6 | B6 | -0.079
7 | B7 | -0.0793
8 | B8 | 0.00447
9 | B9 | -0.041
10 | B10 | 0.0184
11 | B11 | -0.149
12 | B12 | 0.0875
13 | B13 | 0.279
14 | B14 | 0.133
15 | B15 | 0.111
16 | B16 | -0.067
17 | B17 | -0.0819
18 | B18 | 0.165
19 | B19 | -0.0537
20 | B20 | 0.214
21 | B21 | -0.255
22 | B22 | 0.344
23 | B23 | 0.128
24 | B24 | 0.0446
25 | B25 | -0.0256
26 | B26 | -0.356
27 | B27 | 0.115
28 | B28 | 0.163
29 | B29 | -0.0862
